Reference: paper PMC6919601, “Identification of Plasmodium dipeptidyl aminopeptidase allosteric inhibitors by high throughput screening” (PLoS ONE, 2019)
The campaign covered roughly 110,000 compounds. About 230 (0.21%) showed an effect of 50% or more. The list shows a part of the results. Where a SMILES comes first, the peptide text is derived from it. [ ]: non-standard residue; d: D form. The star is where a group is joined. Phe(4-Me) = Cc1ccc(C[CH](N)C(=O)O)cc1; Bz = O=C(c1ccccc1)*

What follows are compounds tested against DPAP1 (Plasmodium falciparum, UniProt Q8IIJ9) (assay: primary screen, percent inhibition; read by cleavage of a fluorogenic dipeptide substrate; higher = more effect of the substance).
Parameters: species or system P. falciparum D10 trophozoite lysates; single well
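Also: 30 min substrate incubation versus DMSO and 10 µM JCP410 controls.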

DPAP1, sequence (Q8IIJ9 whole entry, looked up): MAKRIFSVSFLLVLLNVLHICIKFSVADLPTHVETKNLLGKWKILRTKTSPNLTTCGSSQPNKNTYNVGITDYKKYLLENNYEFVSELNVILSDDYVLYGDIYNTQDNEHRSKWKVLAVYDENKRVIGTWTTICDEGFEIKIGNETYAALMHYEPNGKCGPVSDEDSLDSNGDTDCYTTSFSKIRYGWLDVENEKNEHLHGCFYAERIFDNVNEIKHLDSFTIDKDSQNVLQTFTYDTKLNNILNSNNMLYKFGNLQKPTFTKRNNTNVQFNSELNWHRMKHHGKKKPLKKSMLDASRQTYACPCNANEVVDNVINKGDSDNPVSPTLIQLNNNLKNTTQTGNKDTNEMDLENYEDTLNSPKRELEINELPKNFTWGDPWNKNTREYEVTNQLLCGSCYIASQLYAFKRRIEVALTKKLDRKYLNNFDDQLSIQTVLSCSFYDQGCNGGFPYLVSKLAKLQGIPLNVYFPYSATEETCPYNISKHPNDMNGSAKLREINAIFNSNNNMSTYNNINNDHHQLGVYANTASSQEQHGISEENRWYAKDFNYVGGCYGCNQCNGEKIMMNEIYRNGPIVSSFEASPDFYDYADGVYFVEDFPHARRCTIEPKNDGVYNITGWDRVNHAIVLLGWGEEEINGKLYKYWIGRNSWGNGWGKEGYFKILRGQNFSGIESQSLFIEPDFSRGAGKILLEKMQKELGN

| SMILES | % Inhibition @ 10 uM [%] |
| --- | --- |
| COc1cccc(OC)c1C(=O)Nc1ccc(S(=O)(=O)N2CCC(C)CC2)cc1 | -1.11 |
| COc1cc(OC)cc(C(=O)Nc2ccccc2Br)c1 | -2.32 |
| CN1CCCN(C2CCCCCCC2)CC1 | 2.7 |
| COc1ccc(N(CC(=O)Nc2cccc(C(F)(F)F)c2)S(C)(=O)=O)cc1 | -1.42 |
| C=CCN(Cc1nc(-c2ccc(Cl)cc2)no1)C(=O)NCC | 0.00706 |
| CC(C)N(C(=O)c1ccc(C(=O)Nc2ccccc2)cc1)C(C)C | -2 |
| Cc1cc(C)c2c(n1)SCC(=O)N2CC(=O)NC1CCCCC1C (centres unmarked) | 2.65 |
| CCC(=O)Nc1nc2nc(C)c(C)c(O)n2n1 | -6.81 |
| Nc1c(S(=O)(=O)Cc2ccc(Cl)cc2)sc2nc3c(cc12)CCCC3 | -3.75 |
| CC1(C)CC(=O)C2=C(C1)OC(N)=C(C#N)C2c1cccc(Cl)c1Cl (centres unmarked) | 1.54 |
| CCCC(=O)Nc1ccc(NC(=O)C(C)C)c(OC)c1 | 15.1 |
| O=C(O)CNC(=O)/C=C/c1ccc(Cl)cc1Cl | 2.35 |
| Cc1ccc(NC(=O)C2C3C=CC(C3)C2C(=O)O)cc1 (centres unmarked) | 1.64 |
| O=C(Nc1ccc(S(=O)(=O)NC2CCCCC2)cc1)C1CC1 | -8.88 |
| CCC(C(=O)Nc1c(C)cc(C)cc1C)N1CCCCCC1 (centres unmarked) | -0.415 |
| Cc1cc(C)c2[nH]ncc2c1 | -1.7 |
| Cc1ccc(NC(=O)c2cnn(-c3ccccc3)c2C)c(C)c1 | -2.85 |
| Cc1ccc(NC(=O)Nc2c(C)cc(C)cc2C)cc1 | 3.09 |
| Cc1ccc2oc(=O)c3cnn(CC(=O)NC(C)c4ccc5c(c4)OCCO5)c3c2c1 (centres unmarked) | -3.45 |
| Cc1c(C(=O)N2CCOCC2)sc2ncn(CC(=O)N3CCC(C)CC3)c(=O)c12 | 5.85 |
| N#Cc1ccc(Oc2ccc(N3C(=O)C4C5C=CC(C5)C4C3=O)cc2)cc1 (centres unmarked) | 2.09 |
| Cc1c(CNC(C)CCc2ccccc2)c(C(=O)O)c(C)n1Cc1cccc(Cl)c1 (centres unmarked) | 4.53 |
| CCN1C(=O)/C(=C\c2cccc(O)c2)S/C1=N/c1ccccc1 | -3.37 |
| CCOC(=O)c1c(C)n(-c2ccc(C)cc2)c2ccc(OCC(O)CN3CCN(CCO)CC3)cc12 (centres unmarked) | 0.275 |
| COCCCNC(=O)CSc1[nH]c(-c2ccc(F)cc2)nc1-c1ccc(C)cc1 | 0.163 |
| Cc1cc(C)nc(NC(=O)COc2ccc(Cl)cc2)c1 | -2.15 |

| SMILES | % Inhibition @ 10 uM [%] |
| --- | --- |
| O=C(O)c1cccc(NC(=O)c2cccc(C(=O)Nc3cccc(C(=O)O)c3)c2)c1 | 3.25 |
| CC1(C)CC(=O)C2=C(C1)Oc1ccccc1C2CC(=O)c1ccc(O)cc1 (centres unmarked) | -2.15 |
| COc1ccc(Cl)cc1C(=O)NCCc1nc2ccccc2[nH]1 | -0.348 |
| COc1cc(/C=C2/SC(=O)NC2=O)cc(OC)c1OC | -4.75 |
| COC(=O)c1ccc(-c2ccco2)n1CC(=O)N1CCN(C(=O)c2ccco2)CC1 | -3.8 |
| COC(=O)c1ccc(C2CC(=O)NC3=C2C(=O)CC(c2ccccc2Cl)C3)cc1 (centres unmarked) | 1.39 |
| COc1ccc(C2C(=O)N(C3CCCCC3)CC(=O)N2CCc2ccccc2)cc1OC (centres unmarked) | -2.14 |
| CC(=O)c1sc(Nc2ccc(N(C)C)cc2)nc1C | -2.54 |
| CCOC(=O)N1CCN(C(=O)c2c(C)oc3c2C(=O)c2ccccc2C3=O)CC1 | -5.41 |
| O=C(Nc1ccccc1C(F)(F)F)c1ccccc1Cl | -3.26 |
| Cc1ccc(-c2csc(NC(=O)C3C4CCC(C4)C3C(=O)O)n2)cc1C (centres unmarked) | -0.67 |
| CCOCCCN1C(=O)C(O)=C(C(C)=O)C1c1cccs1 (centres unmarked) | 2.02 |
| CN(C)CCN(C)CC1CCCCC1 | -5.26 |
| Cc1ccc(NC(=O)Cn2c(-c3nonc3N)nc3ccccc32)cc1F | 10 |
| CSc1ccc(CN(CCO)Cc2ccccc2)cc1 | 1.26 |
| O=C(Nc1nc(-c2ccc(F)cc2)cs1)c1cnccn1 | 2.69 |
| CC/N=C1\S/C(=C\c2cc(OCC)c(O)cc2Br)C(=O)N1CC | 0.205 |
| CCOCCCNC(=O)c1cc2c(=O)n3cccc(C)c3nc2n1C | -1.87 |
| O=C(Nc1ccc(Cl)cc1)Nc1ccc(F)c(Cl)c1 | 6.06 |
| CC1=CC2=NC(=O)/C(=C\c3ccc(Sc4ccc(C)cc4)o3)C(=N)N2O1 | 1.79 |
| CS(=O)(=O)N(CC(=O)N1CCN(c2cccc(Cl)c2)CC1)c1cc(Cl)cc(Cl)c1 | 12.2 |
| Cc1cc(O)c(C2=NCCSC(c3ccc(O)c([N+](=O)[O-])c3)C2)c(=O)o1 (centres unmarked) | 2.94 |
| Cc1ccc(-n2nc3c(c2NC(=O)C24CC5CC(CC(C5)C2)C4)CS(=O)(=O)C3)cc1 | -1.12 |
| COc1cccc(S(=O)(=O)Nc2ccc(C(=O)N3CCCCCC3)cc2)c1 | 1.1 |
| C=CCn1c(SCC(=O)Nc2cc(OC)ccc2OC)nc2sc(C)cc2c1=O | -1.38 |
| CCCCn1c(=O)c(C(=O)Nc2nc(-c3ccccc3)cs2)c(O)c2ccccc21 | 2.22 |

| SMILES | % Inhibition @ 10 uM [%] |
| --- | --- |
| O=C(Nc1cccnc1Cl)c1cc2nc(-c3ccc4c(c3)OCO4)cc(C(F)(F)F)n2n1 | 0.0265 |
| COc1ccc(-c2cc3c4c(C)n(C)c(C)c4c(C)nn3c2)cc1 | -4.75 |
| NC(=O)C12CC3CC(C1)C(=O)C(C3)C2 | 0.815 |
| COc1c(F)c(F)c(/C=C/C(=O)O)c(F)c1F | -1.33 |
| COc1ccc(COC(=O)N[C@@H](CC(C)C)C(=O)NCC#N)cc1OC | 4.63 |
| Cc1ccc(-c2c(C#N)c(N)nc3c2CCCC3)o1 | 3.74 |
| CCc1s/c(=N\C(=O)c2cccnc2)n(C)c1-c1ccc(OC)cc1 | 1.28 |
| Cc1ccc(N2CC(C(=O)NCc3cccs3)CC2=O)cc1 (centres unmarked) | -4.7 |
| N#CCNC(=O)[C@H](Cc1cc(I)c(O)c(I)c1)NC(=O)c1ccc(-c2ccccc2)cc1 | -1.41 |
| CCC(C)NC(=O)c1ccc2snnc2c1 (centres unmarked) | -0.0235 |
| COCCNC(=O)c1[nH]c2ccccc2c1Sc1ccc(Cl)cc1 | -1.33 |
| Cc1ccc(N2C(=O)c3ccccc3NC2c2cccc([N+](=O)[O-])c2)cc1 (centres unmarked) | -5.2 |
| CCc1ccc(C2C(C(=O)O)c3ccccc3C(=O)N2C)cc1 (centres unmarked) | 0.231 |
| CCOC(=O)c1cnc2ccc(OC)cc2c1O | 1.19 |
| Cc1cccc(N(CC(=O)N2CCCC2)S(=O)(=O)c2ccccc2)c1 | 3.17 |
| C=CCn1c(SCC(=O)NC2CCCC2)nnc1-c1cccnc1 | 0.503 |
| O=C(NCCN1CCCCCC1)c1cc(-c2ccncc2)nc2ccccc12 | -0.519 |
| Cc1cc(N2CCCCCC2)n2c(nc3ccccc32)c1C#N | 21.6 |
| OCCOCCN1CCN(C2CCCCCCC2)CC1 | -1.81 |
| CCC1(CC)C(=O)N=C(NCCc2ccc(O)cc2)NC1=O | 5.84 |
| COc1ccc(OC)c(CCNC(=O)Cn2cc3c(n2)-c2c(oc(C(=O)N4CCCC4)c2C)CC3)c1 | 3.61 |
| CC1CCCC(NCCCN2CCOCC2)C1 (centres unmarked) | 3.19 |
| O=C1CSc2nnc(-c3ccccc3Br)n2N1 | 2.89 |
| CN1CCCN(Cc2ccccc2C(F)(F)F)CC1 | -5.68 |
| Cc1occc1C(=O)NCc1ccccc1 | -4.89 |
| CCOC(=O)c1c(C)c(C(=O)NCc2ccco2)c(C)n1Cc1ccccc1 | -1.66 |

| SMILES | % Inhibition @ 10 uM [%] |
| --- | --- |
| CC1CCCCN1C(=O)C1CCCCC1C(=O)O (centres unmarked) | 0.909 |
| O=C(CCC1CCCC1)Nc1nc2ccccc2s1 | -2.65 |
| C#CCNc1cc(-c2ccccc2)nc2nncn12 | -2.57 |
| FC(F)(F)c1ccccc1CN1CCN(c2ccc(Cl)cc2)CC1 | -2.03 |
| N#Cc1nc(-c2ccc([N+](=O)[O-])cc2)oc1NCc1ccccc1 | -0.152 |
| CC(C)CC(C(=O)NCC#N)c1cnc(-c2ccc(-c3csc(N4CCNCC4)n3)cc2)s1 (centres unmarked) | -4.72 |
| COc1cc(OC)cc(C(=O)N(Cc2nc(-c3ccc(Cl)cc3)no2)C(C)C)c1 | -8.22 |
| CCN(CC)S(=O)(=O)c1cccc(C(=O)Nc2nc(COc3ccccc3)cs2)c1 | -5.15 |
| COc1ccc(CNC(=O)c2ccc(CN(c3ccccc3)S(C)(=O)=O)cc2)cc1 | -3.71 |
| COc1ccccc1C1C(C#N)=C(N)OC2=C1C(=O)CC(c1ccccc1)C2 (centres unmarked) | 3.03 |
| CC(CCc1ccccc1)NC(=O)c1ccc2ccccc2c1 (centres unmarked) | -1.46 |
| O=C(O)C1CC=CCC1C(=O)Nc1ccccc1F (centres unmarked) | -2.58 |
| COc1ccc(CNC(=O)c2cc3sc(Cl)cc3n2C)cc1 | -6.68 |
| CCC(Oc1ccccc1)C(=O)N1CCN(c2ccc(F)cc2)CC1 (centres unmarked) | -8.46 |
| Cc1ccc(CC(NC(=O)c2ccccc2)C(=O)NC(CC(C)C)C(=O)O)cc1 (centres unmarked) (Bz-[Phe(4-Me)]-Leu-OH; configuration not given here) | -2.14 |
| COc1cc(NCCCCCN)c2ncccc2c1 | 2.32 |
| CC1CCCCC1NC(=O)C1=CCN(S(=O)(=O)c2ccc(Br)cc2)CC1 (centres unmarked) | 5.09 |
| Cc1ccc(-c2cc(/N=C3/C=C(O)CC(C)(C)C3)[nH]n2)cc1 | -7.35 |
| O=C(Cc1ccccc1)Nc1cccc(Cl)c1Cl | -2.42 |
| CC(=O)c1cc(-c2ccccc2)n(CC(=O)N2CC(C)CC(C)C2)c1C (centres unmarked) | 1.27 |
| COc1ccc(C(CNC(=O)c2oc3ccc(F)cc3c2C)N2CCCCC2)cc1 (centres unmarked) | 1.67 |
| CC(=O)c1cc(C#N)c(SCc2ccc(F)cc2)nc1C | 1.43 |
| COc1ccc(N2CCN(c3nc(OC)nc(N4CCOCC4)n3)CC2)cc1 | 9.62 |
